According to PubChem BioAssay AID463173 (ICCB-Longwood Screening Facility, Harvard Medical School, 2010):
Screen size: about 52,000 compounds; about 1,700 (3.3%) were called active. No stated cut-off is given here; in the data, active means survival mostly below about 52% (no sharp cut-off); inactive means mostly above about 56%. This is one part of the list.

Each compound was assayed on Wild type (assay: S. aureus survival, RN4220 and DeltatarO strains – OD600, teichoic acid synthesis inhibitors, primary screen (AID 463173)). Conditions: S. aureus RN4220 wild type/DeltatarO growth, OD600, 18 h, hits give low values, screened at 18.75 µg/mL (by protocol).
With `COc1ccc(N(CC(=O)N2CCN(c3cccc(Cl)c3)CC2)S(=O)(=O)c2c(C)noc2C)cc1` the survival was inactive: 84%. For `COc1ccc(-c2oc3ncn4nc(COc5ccc(Cl)cc5)nc4c3c2-c2ccc(OC)cc2)cc1`, the survival was inactive: 79%. For `CCc1nnc2c(Nc3cc(OC)c(Cl)cc3OC)nc3ccccc3n12`, the survival was inactive: 94%. With `CCCCc1nc(Cl)c(C#N)c2c1COC(C)(C)C2` the survival was inactive: 115%. `O=C(Nc1ccc2oc(-c3cccc4c(Br)cccc34)nc2c1)c1cccc(Cl)c1` was tested, and the survival was inactive: 134%. `Cc1cc(C)cc(-n2ccn3cnnc3c2=O)c1` was tested, and the survival was inactive: 68%. `Cc1ccc(OCC(=O)OCc2cc(=O)n3nc(C4CC4)sc3n2)cc1C` was tested, and the survival was inactive: 82%. In the case of `CCC(C(=O)NCCc1ccc(OC)c(OC)c1)n1nc(C)c2sc3ccccc3c2c1=O` (configuration not stated), the survival is reported as inactive: 79%. With `O=C(NC1CCCC1)C(c1cccnc1)N(CCc1ccccc1)C(=O)c1ccco1` (configuration not stated) the survival was inactive: 104%. With `CC(C)(C)C1CCc2c(sc(NC(=O)c3cc(-c4ccc(F)cc4)on3)c2C#N)C1` (configuration not stated) the survival was inactive: 134%. `CCCN(c1ccccc1F)S(=O)(=O)c1cc(-c2cc(C)no2)ccc1C` was tested, and the survival was inactive: 71%. `CCc1ccc2occ(CC(=O)Nc3c(C(=O)c4ccc(F)cc4)oc4ccccc34)c2c1` was tested, and the survival was inactive: 81%. For `COc1ccc(C)cc1NC(=O)Cn1c(=O)oc2cc(S(=O)(=O)N3CCCCCC3)ccc21`, the survival was inactive: 83%. With `CSc1cccc(Nc2cc(C(=O)NC3CCCCC3)c3ccccc3n2)c1` the survival was inactive: 142%. In the case of `CCCCCCSc1nc(N)c2c3c(sc2n1)CCCC3C` (configuration not stated), the survival is reported as active: -2%. For `Cn1nc(-c2ccccc2)c(-c2ccccc2)c(C(=O)Nc2ccccc2C(N)=O)c1=O`, the survival was inactive: 110%. For `Cc1cc(C)cc(N2C(=O)CSC23C(=O)N(CC(N)=O)c2ccccc23)c1` (configuration not stated), the survival was inactive: 68%. `CN(C)c1ccc(-c2nc3ccc(Cl)cn3c2Nc2ccc3c(c2)OCCO3)cc1` was tested, and the survival was inactive: 138%. For `CCCN(CCC)c1cc(C)nc2nc(-c3ccc(C(C)(C)C)cc3)nn12`, the survival was inactive: 111%. For `Cc1ccc(C)c(N2CCN(C3(c4ccccc4)C(=O)c4ccccc4C3=O)CC2)c1`, the survival was inactive: 99%. For `CCOCCCNC(=O)Cn1ncc2c([nH]c3ccc(C)cc32)c1=O`, the survival was inactive: 51%. For `COCCN(Cc1ccc(C)c(Br)c1)S(=O)(=O)c1ccc2[nH]c(=O)ccc2c1`, the survival was active: -3%. `CCC(C)(C)NC(=O)Cn1c(-c2ccc(C)cc2)noc1=O` was tested, and the survival was inactive: 113%. `CC(=O)N1CCc2cc(Br)cc(S(=O)(=O)CCC(=O)N3CCN(c4cccc(C)c4C)CC3)c21` was tested, and the survival was inactive: 77%. With `CCOC(=O)c1ccc(NC(=O)c2cc(=O)c3ccc(C)c(C)c3o2)cc1` the survival was inactive: 86%. In the case of `CC1CCCCC1NC(=O)Cn1nnc(-c2ccc(N(C)C)cc2)n1` (configuration not stated), the survival is reported as inactive: 108%. In the case of `Cn1c(SCC(=O)N2CCCc3ccccc32)nnc1-c1ccccc1N`, the survival is reported as inactive: 102%. `Cc1ccc(-n2ncc3c(Nc4ccc(Oc5ccccc5)cc4)ncnc32)cc1` was tested, and the survival was inactive: 74%. For `Cc1cc(=O)[nH]c(SCC(=O)OCc2ccccc2)c1C#N`, the survival was inactive: 109%. For `CCc1ccccc1NC(=O)N1CCN(Cc2nc3ccc(C)cc3o2)CC1`, the survival was inactive: 69%. In the case of `CCSc1nnc(COc2ccccc2)n1CC`, the survival is reported as inactive: 96%. In the case of `Cc1cccc(N2CCN(C(=O)c3cc4ccc5cccnc5c4[nH]3)CC2)c1C`, the survival is reported as inactive: 73%. `Cc1c(C(=O)Nc2cccc(C(F)(F)F)c2)sc2nc3n(c(=O)c12)CCC3` was tested, and the survival was inactive: 74%. `Cc1cccc(Cn2cc3c(=O)n(CC(=O)Nc4cccc(C)c4C)nc-3c3cc(F)ccc32)c1` was tested, and the survival was inactive: 87%. In the case of `CC(C)Cc1nn2c(=O)cc(COC(=O)c3cccc(NC(=O)c4ccccc4)c3)nc2s1`, the survival is reported as inactive: 70%. `COc1ccc(NC(=O)c2cc(C3CC3)nc3c2c(C)nn3-c2ccccc2)c(OC)c1` was tested, and the survival was inactive: 32%. `CCCN(CCC)CCNC(=O)c1cc2c(=O)oc3ccc(C)cc3c2s1` was tested, and the survival was inactive: 88%. For `CCOCCCNC(=O)Cn1ncc2c([nH]c3ccccc32)c1=O`, the survival was inactive: 76%. With `CCOc1ccc(/C=C/c2nc(C#N)c(NCc3ccc(OC)cc3)o2)cc1` the survival was inactive: 75%. In the case of `Cc1noc(C)c1S(=O)(=O)N(CC(=O)Nc1ccc(C(F)(F)F)cc1)c1ccc(C(C)C)cc1`, the survival is reported as inactive: 85%. `O=C1CC2(Oc3ccccc3O2)C(=O)NN1` was tested, and the survival was inactive: 119%. In the case of `Clc1ccccc1CNCCCSc1nnnn1-c1ccccc1`, the survival is reported as inactive: 84%. For `COC(=O)c1ccc(NC(=O)C(=O)NCCc2csc3nc(-c4ccccc4F)nn23)cc1`, the survival was inactive: 60%. In the case of `O=C1C2C3C=CC(C3)C2C(=O)N1CCN1CCN(S(=O)(=O)c2ccc(Br)cc2)CC1` (configuration not stated), the survival is reported as inactive: 115%. With `CCOC(=O)N1CCN(Cc2nc3cc(NC(=O)CC(C)C)ccc3n2C(C)C)CC1` the survival was inactive: 92%. In the case of `CCN(CC)S(=O)(=O)c1ccc2c(c1)N(CC(=O)Nc1cccc(C)c1C)C(=O)C1CCCN21` (configuration not stated), the survival is reported as active: -4%. For `COc1cccc(-c2noc(-c3cc4ccccc4oc3=O)n2)c1OC`, the survival was inactive: 101%. With `O=C(NCc1ccc2c(c1)CCN2C(=O)c1ccc(F)cc1)c1c(F)cccc1F` the survival was inactive: 87%. With `COc1ccc(C)cc1NC(=O)CSc1ncc2c(n1)-c1ccc(Cl)cc1N(Cc1ccccc1)S2(=O)=O` the survival was inactive: 73%. For `Nc1nonc1-c1nc2ccccc2n1CC(=O)Nc1cccc(C(F)(F)F)c1`, the survival was inactive: 120%. With `Cc1ccc(NC(=O)CCN2C(=O)c3ccccc3Sc3ncccc32)cc1` the survival was inactive: 76%. `COc1cc(OC)c(NC(=O)C(CC(C)C)N2Cc3ccccc3C2=O)cc1Cl` (configuration not stated) was tested, and the survival was inactive: 124%. In the case of `CCOc1ccccc1NC(=O)CSc1cn(CC(=O)N2CCCCCC2)c2ccccc12`, the survival is reported as inactive: 93%. In the case of `NC(=O)C1CCN(C(c2ccccc2)c2nnnn2Cc2ccccc2)CC1` (configuration not stated), the survival is reported as inactive: 104%. In the case of `CC1=C(C(=O)Nc2ccccc2)C(c2ccc(F)cc2)n2nc(SCc3cc(C)ccc3C)nc2N1` (configuration not stated), the survival is reported as inactive: 113%. For `CCOC(=O)Cn1nnnc1C(CC)N(Cc1cccnc1)Cc1cc2cc(C)ccc2[nH]c1=O` (configuration not stated), the survival was inactive: 112%. For `CCOc1cccc2sc(NC(=O)CS(=O)(=O)c3ccc(C)cc3)nc12`, the survival was inactive: 72%.
